Consider one molecule from PMC3938053.

In this test the target is SMAD1, endogenous in HaCaT cells (human (endogenous in HaCaT)), Q15797. Briefly: SEC; extracts of unstimulated HaCaT cells only, Superose 6 10/300 GL, 50 mM Tris-HCl 7.5, 150 mM NaCl, 0.03% Brij-35; fractions immunoblotted. To be noted: remark: other sources report otherwise. For orientation: Size exclusion chromatography separates by hydrodynamic size, large species first.

No constants are given. Whether binding was seen depends on the method and setting.

B1: SMAD1, endogenous in HaCaT cells, Q15797 1-465 (protein)
chain: MNVTSLFSFTSPAVKRLLGWKQGDEEEKWAEKAVDALVKKLKKKKGAMEELEKALSCPGQPSNCVTIPRSLDGRLQVSHRKGLPHVIYCRVWRWPDLQSHHELKPLECCEFPFGSKQKEVCINPYHYKRVESPVLPPVLVPRHSEYNPQHSLLAQFRNLGQNEPHMPLNATFPDSFQQPNSHPFPHSPNSSYPNSPGSSSSTYPHSPTSSDPGSPFQMPADTPPPAYLPPEDPMTQDGSQPMDTNMMAPPLPSEINRGDVQAVAYEEPKHWCSIVYYELNNRVGEAFHASSTSVLVDGFTDPSNNKNRFCLGLLSNVNRNSTIENTRRHIGKGVHLYYVGGEVYAECLSDSSIFVQSRNCNYHHGFHPTTVCKIPSGCSLKIFNNQEFAQLLAQSVNHGFETVYELTKMCTIRMSFVKGWGAEYHRQDVTSTPCWIEIHLHGPLQWLDKVLTQMGSPHNPISSVS
For B1, the binding result is “no binding”.
